# Data published in PubChem BioAssay AID720542 (National Center for Advancing Translational Sciences (NCATS), 2013).
# In all, about 360,000 compounds went through this assay and about 740 (0.21%) were called active. This list was built around the results that the source calls inconclusive (neither active nor inactive); the mix of calls is not that of the screen. The call rests on the fitted dose curve; in most records, active means well fitted inhibition curve with a large enough effect; inconclusive means small, poorly fitted or top-dose-only effect; inactive means no such curve, though single readings can be large or run the other way. No potency is given beside an inconclusive call; the fits are too rough.
# Test system: Plasmodium falciparum AMA1 (3D7) - RON2 peptide interaction
# Experiment: qHTS for Inhibitors of AMA1-RON; Towards Development of Antimalarial Drug Lead: Primary Screen; further: nearly all actives have a fitted effect of over 45% in size;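 on activity change, negative = inhibition: 0% = vehicle wells and -100% = peptide control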
# Conditions: AlphaScreen AMA1-biotinylated RON2 peptide binding; activity change, negative = inhibition: at 58.2 µM (top of the series) unless noted
# In short: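 AMA1 (3D7) with his tag at 25 nM final met compounds first, then biotinylated RON2 peptide at 25 nM; detection used donor plus acceptor beads, 10 µg/mL apiece, read by AlphaScreen after 30 min at room temperature.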
# Potency means the concentration at half of the fitted maximal effect; tags describe the fitted curve by direction and shape.
Structure (SMILES),"activity change, negative = inhibition",Potency
CC1CCc2c(C(=O)OCC(=O)Nc3cccc(S(=O)(=O)N4CCCCCC4)c3)csc2C1 (configuration not stated),inactive: -14.1%,–
Cc1ccc(S(=O)(=O)N2CCN(CCOc3c(Cl)cccc3Cl)CC2)cc1C,inconclusive: -33.6% [inhibitor],–
O=C(O)COc1ccc(Nc2ccccc2)cc1,–,"inconclusive [inhibitor, single point]"
CCOc1ccc(S(=O)(=O)NN)cc1,–,"inconclusive [inhibitor, single point]"
COc1ccc(N2CCC(CNC(=O)Nc3cccc(OC)c3)C2)cc1 (configuration not stated),–,"inconclusive [inhibitor, single point]"
Cc1ccc(NC(=O)CS(=O)CC(=O)Nc2ccc(N3CCOCC3)cc2)cc1Cl (configuration not stated),–,"inconclusive [inhibitor, partial curve, poor fit]"
Cc1ccccc1C(c1ncccc1C)N(C)C(=O)C1CCN(CCOc2ccc(Cl)cc2Cl)CC1 (configuration not stated),–,"inconclusive [inhibitor, single point]"
O=C(NCCc1ccccc1)c1ccc2c(c1)OCO2,inactive: 44.9%,–
O=C1CSC(=S)N1N=C1CCCCCC1,–,"inconclusive [inhibitor, partial curve]"
CCN(CC)CCOC(=O)c1ccc(NC(=O)CCCN2C(=O)S/C(=C/c3ccc(OC)cc3)C2=S)cc1,–,"inconclusive [inhibitor, partial curve]"
Cc1ccc2c(c1N)C(=O)c1ccccc1C2=O,–,"inconclusive [inhibitor, partial curve]"
O=[N+]([O-])c1ccccc1-c1ccc(C(=S)N2CCN(c3ccccc3)CC2)o1,–,"inconclusive [inhibitor, partial curve]"
O=C(Nc1ccc2oc(-c3ccccc3F)nc2c1)c1ccc2c(c1)OCCO2,–,active: 8.44 µM
COc1ccc(CN2CCC(C(N)=O)CC2)cc1OCc1ccccc1,–,"inconclusive [inhibitor, partial curve]"
Brc1ccc(-c2csc(/N=C/N3CCCC3)n2)cc1,–,"inconclusive [inhibitor, partial curve]"
COc1ccccc1N1CCN(Cc2cc3c(cc2Br)OCCO3)CC1,–,"inconclusive [inhibitor, partial curve]"
COc1ccc(N2C(=O)C3ON(C4SC(=S)N(C)C4(C)C)C(c4ccc([N+](=O)[O-])cc4)C3C2=O)cc1 (configuration not stated),–,"inconclusive [inhibitor, single point]"
COc1cccc(CC2(CO)CCN(Cc3cccn3-c3cccnc3)CC2)c1,inactive: -6.11%,–
CCC(=O)NC(=S)NNC(=O)c1ccc([N+](=O)[O-])cc1,–,"inconclusive [inhibitor, partial curve]"
CC(C)N(CCC(=O)c1ccc2ccccc2c1)Cc1ccccc1,inactive: 6.36%,–
O=C(CSc1nc(C2CC2)nc2ccccc12)N1CCCCC1,inactive: 10.3%,–
Cc1cccc(/C=N/NC(=O)c2cc(Br)ccc2OCc2ccccc2)n1,inactive: 25.1%,–
COc1cc(C(=O)N/N=C(\C)Cn2nc([N+](=O)[O-])cc2C)ccc1O,inactive: 13.4%,–
CCOC(=O)N/N=C\c1ccc(-c2cc(Cl)ccc2Cl)o1,–,"inconclusive [inhibitor, full curve]"

Structure (SMILES),"activity change, negative = inhibition",Potency
COc1ccc(CNCc2cccc(OC)c2OC)cc1Br,–,"inconclusive [inhibitor, single point]"
COc1ccc(/C=N/NC(=O)c2ccccc2O)cc1Cn1nnc2ccccc21,inactive: 92.2%,–
COC(=O)C1(S(=O)(=O)c2cc(Br)cc3c2N(C(C)=O)CC3)CC1,inactive: 10.5%,–
COc1ccc(C(=O)NNC(=S)NC(=O)C(C)(C)C)cc1,inactive: 73.2%,–
O=[N+]([O-])c1cccnc1Sc1ccc(Br)cc1,–,"inconclusive [inhibitor, single point]"
CCCNC(=O)c1ccc(N2CCC3(CC2)CC(c2cccc(Br)c2)=NO3)c(N)c1,–,"inconclusive [inhibitor, single point]"
COc1ccc(OC)c(NC(=O)c2ccc(OC3CSC3)cc2)c1,–,"inconclusive [inhibitor, single point]"
COC(=O)CCc1c(C)[nH]c(C(=O)OCc2ccccc2)c1C,–,"inconclusive [inhibitor, partial curve]"
COc1ccc(C(C#N)=C2C=C(Cl)C(=NO)C=C2Cl)cc1,–,active: 22.4 µM
Cc1cccc(-c2ccc3[nH]c4c(c3c2)CCN2C[C@H]3[C@H](C)ON(C)[C@H]3C[C@@H]42)c1,–,"inconclusive [inhibitor, single point]"
O=C1Nc2ccc3sc4ccccc4c3c2C1=O,–,"inconclusive [inhibitor, partial curve]"
COc1cccc(C(=O)Oc2cc(C)[nH]c(=O)c2[N+](=O)[O-])c1,–,"inconclusive [inhibitor, partial curve]"
Cc1cc(CN2C(=O)c3ccccc3C2=O)no1,inactive: -23.4%,–
CC1(c2ccccc2)CC(c2ccccc2)=Nc2ccccc2N1 (configuration not stated),inactive: -6.46%,–
Cc1cc(NCCNC2=CC(=O)CCC2)nc2ccccc12,inactive: 1.85%,–
Cc1c(Cl)c([N+](=O)[O-])nn1CCCC(=O)NC(C)c1ccccc1 (configuration not stated),–,"inconclusive [inhibitor, partial curve, poor fit]"
Cc1ccc(C(=O)N2CCN(c3cccc(C)c3C)CC2)o1,–,"inconclusive [inhibitor, single point]"
Cc1c(C)n(C)c2ccc(C(=O)N3CCN(c4ccccc4)CC3)cc12,–,"inconclusive [inhibitor, single point]"
Cc1cc(C)c2sc(NNC(=O)c3ccc(S(=O)(=O)N4CCc5ccccc5C4)cc3)nc2c1,inactive: 38%,–
C=Cc1ccc2c(c1)OCCOCCOCCOCCOCCO2,–,"inconclusive [inhibitor, partial curve]"
O=C(NCc1cccc(Cl)c1)c1cnccn1,inactive: 17.6%,–
CC(C)Cn1c(SCC(=O)c2ccc(Cl)s2)nnc1-c1ccco1,inactive: -13.5%,–
CC1CCc2cc(F)ccc2N1S(=O)(=O)c1ccc(Cl)nc1 (configuration not stated),inactive: 6.42%,–
N=C1C(c2ccccc2)=C(O)CN1CCCO,inactive: -3.48%,–

Structure (SMILES),"activity change, negative = inhibition",Potency
CCCc1cc(=O)[nH]c(SCC(=O)c2cc(C)n(C(C)COC)c2C)n1 (configuration not stated),–,"inconclusive [inhibitor, partial curve, poor fit]"
COC1=CC(=O)C(O)=C(CCCCCCC/C=C/CCCCCCCC2=C(O)C(=O)C=C(OC)C2=O)C1=O,–,"inconclusive [inhibitor, full curve, poor fit]"
CCC1Nc2ncnc(N3CCN(c4ccccc4)CC3)c2N(Cc2ccc(Br)cc2)C1=O (configuration not stated),inactive: -26.7%,–
CN1C[C@H](CNC(=O)OCc2ccccc2)C[C@@H]2c3cccc4c3c(cn4C)C[C@H]21,–,"inconclusive [inhibitor, partial curve]"
COc1cc(CNc2ccccc2)c([N+](=O)[O-])cc1OC,–,"inconclusive [inhibitor, single point]"
CC1CCCC(C)N1/N=C/c1cccc([N+](=O)[O-])c1 (configuration not stated),–,"inconclusive [inhibitor, single point]"
O=C1c2ccccc2C2=Nc3ccccc3SC(c3ccc(Cl)cc3)C12 (configuration not stated),–,"inconclusive [inhibitor, single point]"
CN1CCN(CCOc2ccc(Cl)c(Cl)c2)CC1,–,"inconclusive [inhibitor, partial curve]"
C=CCN1C(=O)CS/C1=C(\C#N)S(=O)(=O)c1ccc(C)cc1,inactive: -7.46%,–
Cc1cc(C)c(NC(=O)CNC(=O)COC(=O)CN2C(=O)NC3(CCCC3)C2=O)c(C)c1,–,"inconclusive [inhibitor, full curve]"
COc1ccccc1N1CCN(C(c2ccc(N(C)C)cc2)c2nnnn2CCc2ccccc2)CC1 (configuration not stated),–,active: 20 µM
CC(=O)OC(C)C(=O)NS(=O)(=O)c1ccc(C)cc1 (configuration not stated),–,"inconclusive [inhibitor, single point]"
COC(=O)C1=CN(c2cccc(C)c2)C=C(C(=O)OC)C1c1cc(OC)c(O)c([N+](=O)[O-])c1,–,"inconclusive [inhibitor, single point]"
O=C1CN(C(=O)CNCc2ccccc2)c2ccccc2N1,–,"inconclusive [inhibitor, partial curve]"
CCOc1ccc(C(C(=O)NCC2CCCO2)N(C(=O)c2snc(C(N)=O)c2N)c2ccc3c(c2)OCCO3)cc1 (configuration not stated),–,"inconclusive [inhibitor, partial curve]"
COc1ccc(CN2CCN(C(=O)Cc3ccccc3)CC2)cc1Br,–,"inconclusive [inhibitor, partial curve]"
CCS(=O)(=O)Nc1ccc2c(c1)N(C(C)=O)c1ccccc1CC2,inactive: -7.74%,–
Cc1ccc([C@H]2C[C@@H](O)[C@H](n3cc(C4CC4)nn3)CN2C(=O)C2CCCCC2)cc1,inactive: 6.46%,–
CS(=O)(=O)c1ccc2nc(NC(=O)C3=NN(c4ccccc4)C(=O)CC3)sc2c1,inactive: 8.7%,–
COc1ccc(N/N=C(/C(C)=O)N2CCCc3ccccc32)cc1,–,active: 15.8 µM
COc1ccc(-c2[nH]ncc2CN2CCC(O)(c3ccc(Cl)cc3)CC2)cc1,–,"inconclusive [inhibitor, full curve, poor fit]"
COC(=O)c1sc2ccccc2c1NC(=O)c1ccc(S(=O)(=O)N2CC(C)CC(C)C2)cc1 (configuration not stated),inactive: -3.29%,–
COc1ccccc1-c1nnc(SCCN2CCOCC2)n1-c1ccc(C)cc1,–,"inconclusive [inhibitor, single point]"
Cc1c(C(=O)Nc2ccc3c(c2)OCO3)oc2ccccc12,–,"inconclusive [inhibitor, partial curve]"
